Experimental data reported in US12643954B2, “Anti-CD36 antibodies and their use to treat cancer” (ONA Therapeutics, S.L., priority 2020, dated 2026).
Entries after “also recorded” stand apart in the source; their conditions may differ.

Assays:
A549 cells = assay: A549 tail-vein mouse model of metastatic lung cancer; type: in vivo
Procedure: Studies of the effects of the 1G04 anti-CD36 antibody on lung cancer were performed in NSG mice (immuno-deficient). The studies included only female mice. All mice were inoculated with commercially available A549-luc2 (ATCC) cancer cells, a modified version of A549 cells generated by stable transduction with a lentiviral vector expressing luciferase. A549 cells are cells derived from a lung carcinoma (i.e. from a lung cancer), and therefore were used as part of a mouse model of lung cancer. Prior to inoculation, the A549 cells were cultured in a humidified incubator at 37° C. with 5% CO2, and were grown in F-12K medium supplemented with 5 μg ml^−1 penicillin/streptomycin and 10% FBS (GIBCO).
For each mouse, 1×10^6 A549 cells were inoculated intravenously via tail vein injection. Each mouse was imaged after inoculation and one week later and lung metastasis was confirmed by luminescence prior to start of treatment. Treatment began 8 days after inoculation with the A549 cells. As detailed in FIG. 30B, inoculated mice were divided into one of two treatment groups: vehicle injection control (n=11) or 1G04 treatment (n=11). Antibody treatments were administered via intraperitoneal (i.p.) injection at a dose of 10 mg/kg three times per week, while control mice received an equal volume of vehicle on the same schedule. One day prior to the start of treatment, and once weekly after the start of treatment, all mice were imaged via IVIS. Mice were sacrificed at the end of the treatment period (day 61). Upon sacrifice, organs and tissues were collected for performance of necropsy and ex-vivo IVIS.

[1] = biological target: T1, cells overexpressing human CD36 (Homo sapiens, UniProt P16671); assay: FACS binding to cells overexpressing human CD36
T1 construct: expressed in transfected cells
T1 sequence (P16671 whole entry): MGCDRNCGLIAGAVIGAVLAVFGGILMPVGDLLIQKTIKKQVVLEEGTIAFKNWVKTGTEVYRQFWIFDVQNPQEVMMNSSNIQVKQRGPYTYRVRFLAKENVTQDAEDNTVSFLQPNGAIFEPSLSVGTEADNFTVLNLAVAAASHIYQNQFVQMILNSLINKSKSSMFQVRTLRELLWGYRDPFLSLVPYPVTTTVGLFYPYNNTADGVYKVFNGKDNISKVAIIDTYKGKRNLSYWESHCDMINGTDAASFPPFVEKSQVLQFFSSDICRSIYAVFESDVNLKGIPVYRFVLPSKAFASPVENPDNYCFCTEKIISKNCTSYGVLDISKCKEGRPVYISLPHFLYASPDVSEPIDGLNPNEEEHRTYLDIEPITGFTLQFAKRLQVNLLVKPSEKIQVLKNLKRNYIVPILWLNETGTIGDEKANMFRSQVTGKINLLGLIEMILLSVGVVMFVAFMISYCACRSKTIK
Procedure: For FACS analysis, cells were trypsinized, collected in a 15 mL tube and diluted in washing buffer (2% FBS in PBS). Cells were then centrifuged at 1500 rpm for 5 min at 4° C., supernatant was discarded, and cells were resuspended in fresh washing buffer. Anti-CD36 antibodies were either omitted (control wash buffer treatment) or serially diluted in washing buffer (dilution range up to 100 nM), and then added to the cells. Incubation was performed on ice for 1 hour. Cells were then centrifuged at 1500 rpm for 5 min at 4° C., supernatant was discarded, and cells were resuspended in fresh washing buffer. Finally, cells were incubated with a […] (BV421 Rat Anti-Mouse IgA, Becton Dickinson, reference 743293) diluted 1:100 in washing buffer, washed and analysed by FACS.

B1: 1G04: chimeric ONA-0-v1 IgG1 LALA antibody; heavy chain SEQ ID NO: 21, light chain SEQ ID NO: 23 (antibody)
heavy: QVQLKQSGADLVRPGASVKLSCKASGYTFTDYYINWVKQRPGQGLEWIARIYPGSGNTYYNEKFKGKATLTAEKSSSTAYMQLSSLTSEDSAVYFCARGIGGGFGMDYWGQGTSVTVSS[skipping human IgG1 constant region with changes]
light: SIVMTQTPKFLLVSAGDRITITCKASQSVSDDVAWYQQKPGQSPKLLIYYASNRYTGVPDRFTGSGYGTDFTFTISTVQAEDLAVYFCQQDYSSPLTFGAGTKLEIKRTVAAPSVFIFPPSDEQLKSGTASVVCLLNNFYPREAKVQWKVDNALQSGNSQESVTEQDSKDSTYSLSSTLTLSKADYEKHKVYACEVTHQGLSSPVTKSFNRGEC
modifications: 1G04 heavy chain; 1G04 light chain; 1G06 light chain
**Q.** For B1, which “whole-animal bioluminescence over time” value (A549 cells; 10 mg/kg i.p. three times per week) is on record?
**A.** The value was “reduced the growth”.

**Q.** And the “mean lung weight at endpoint” value (A549 cells; day 61)?
**A.** The value was 0.72 g.

**Q.** And the “reduction of mean lung weight vs vehicle” value (A549 cells; day 61)?
**A.** The value was 20%.

**Q.** What about the “binding to cells overexpressing human CD36 (FACS)” value ([1]; antibodies at 100 nM) of the same molecule?
**A.** Its value is “bound equivalently”.

**Q.** And the “binding to cells overexpressing human CD36 (FACS)” value ([1]; serial dilution up to 100 nM)?
**A.** The value was “specifically bound; also recorded: bound equivalently”.
